Measured values as given in PubChem BioAssay AID488969 (Vanderbilt High Throughput Screening Facility, 2010).
In all, about 110,000 compounds were measured (“z-score”: median about -0.1, highest 2% from about 2 on). This is one part of the list. Calls of active or inactive are those of the source.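 How the source made its calls: active means z-score in the third read window above 3 or below -3; inactive means the rest.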

Each compound was assayed against Metabotropic glutamate receptor 8 (Rattus norvegicus) (UniProt P70579) (assay: rat mGluR8 modulators via GIRK flux, primary screen, cell-based, thallium flux, HTS (AID 488969)). Conditions: HEK293 rat mGluR8, GIRK (G protein-gated inwardly rectifying potassium channel) thallium flux, FluoZin2; at 10 µM; stronger effect = higher value; submaximal glutamate (EC20) added with thallium.
Chain of UniProt P70579 (P70579 whole entry, looked up): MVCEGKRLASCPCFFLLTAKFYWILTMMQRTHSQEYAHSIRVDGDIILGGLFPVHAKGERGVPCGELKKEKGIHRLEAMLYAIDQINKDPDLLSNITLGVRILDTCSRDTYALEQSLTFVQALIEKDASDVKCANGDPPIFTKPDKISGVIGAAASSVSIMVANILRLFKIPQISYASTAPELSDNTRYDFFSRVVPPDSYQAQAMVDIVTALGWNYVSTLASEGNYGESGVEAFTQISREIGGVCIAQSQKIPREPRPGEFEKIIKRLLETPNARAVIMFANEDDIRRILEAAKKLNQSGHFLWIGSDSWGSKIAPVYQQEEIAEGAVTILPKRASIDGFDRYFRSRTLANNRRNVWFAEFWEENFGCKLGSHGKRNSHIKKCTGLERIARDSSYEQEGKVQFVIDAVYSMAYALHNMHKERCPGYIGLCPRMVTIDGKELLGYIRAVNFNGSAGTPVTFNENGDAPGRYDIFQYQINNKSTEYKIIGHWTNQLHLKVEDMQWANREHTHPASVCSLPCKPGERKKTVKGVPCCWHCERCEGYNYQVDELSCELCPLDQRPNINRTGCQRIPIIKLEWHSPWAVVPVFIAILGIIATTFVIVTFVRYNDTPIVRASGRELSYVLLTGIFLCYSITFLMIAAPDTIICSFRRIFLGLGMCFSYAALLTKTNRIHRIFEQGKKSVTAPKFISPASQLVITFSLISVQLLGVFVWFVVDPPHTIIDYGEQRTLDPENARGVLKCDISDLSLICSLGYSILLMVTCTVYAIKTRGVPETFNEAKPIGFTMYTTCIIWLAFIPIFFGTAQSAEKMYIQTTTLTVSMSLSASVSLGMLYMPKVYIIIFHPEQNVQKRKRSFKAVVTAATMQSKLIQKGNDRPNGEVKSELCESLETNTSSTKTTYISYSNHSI

SMILES | z-score
C=CCOc1ccc(C2CC(C)=NN2c2ccccc2)cc1 (centres undefined) | -0.214
Cc1sc2nc(SCC(=O)NCCO)n(C)c(=O)c2c1C | 0.0482
Cc1cc(C)c(C(=O)COC(=O)Cn2cnnn2)cc1C | 0.975
Cc1onc(-c2c(F)cccc2Cl)c1C(=O)OCC(=O)NC(c1ccccc1)c1ccccc1 | 0.444
O=C(Nn1cnnc1)c1ccccc1-c1ccccc1 | 0.33
Cc1ccc(-c2cc(C(=O)NCc3ccccn3)c3ccccc3n2)cc1 | -0.475
CCNc1ccc(S(=O)(=O)C(F)(F)F)cc1NC(=O)C12CCC(CC1)C2 | 0.397
Cc1ccc(NC(=O)c2ccccc2OCC(=O)c2ccc(F)cc2)cc1 | 0.073
CCCCC(=O)NCCc1cc2c(OC)ccc(OC)c2[nH]c1=O | 0.0917
Nc1cccc(C(=O)OCC(=O)Nc2cccc3c2C(=O)c2ccccc2C3=O)c1 | -0.135
C/C(=N\NC(=O)c1ccco1)c1cc2ccccc2o1 | 0.664
C=C(Br)Cn1c(CCCC)nc2ccccc21 | 0.0993
COc1ccc(NC(=O)c2cc(-c3ccccc3)nc3c2c(C)nn3-c2ccccc2)c(OC)c1 | -0.458
COc1ccccc1NC(=O)CC(NCCN(C)C)C(=O)O (centres undefined) | -0.0257
O=C(c1ccco1)N1CCN(c2cc(C(F)(F)F)nc3ncnn23)CC1 | 1.33
CCCc1[nH]n(-c2nc3ccccc3s2)c(=O)c1C=NCCN1CCOCC1 | -2.51
COc1ccc(OCC(O)CN2CCCCC2)cc1 (centres undefined) | 0.504
CN(C(=O)CSc1nnc(N)s1)c1c(N)n(Cc2ccccc2)c(=O)[nH]c1=O | 0.432
Cc1ccc(-n2c(=O)[nH]cc(C(=O)N3CCc4ccccc43)c2=O)cc1 | 0.365
CC(=O)N1CCc2cc(C(=O)CN3CCCCC3)ccc21 | 0.732
CCCc1nc2c(sc3nc4c(cc32)COC(C)(C)C4)c(=O)n1Cc1ccco1 | -1.21
COc1ccc(/C=C/C(O)=C2/C(=O)N(C)C3(C)CC2c2ccccc2O3)cc1 (centres undefined) | -1
CC(C)c1ccc(/C=N/NC(=O)c2c(Cl)cnn2C)cc1 | -0.478

SMILES | z-score
O=C(CCc1[nH]c2ccccc2c1Sc1ccccc1)N(CCO)CCO | -0.0492
N#CC1=C(N)Oc2n[nH]c(-c3ccccc3)c2C1c1cccnc1 (centres undefined) | -0.183
Cc1[nH]nc2ncc(C(=O)c3cc(F)ccc3O)cc12 | 0.0218
CC1CN(c2oc(COc3ccc(Cl)cc3Cl)nc2C#N)CC(C)O1 (centres undefined) | -0.0172
O=C(COc1cccc(Cl)c1)NNC(=S)Nc1ccccc1 | 0.593
Cc1ccc(C2=N/C(=C\N(C)C)C(=O)O2)cc1 | 0.524
CCNC(=S)N/N=C/c1cn(Cc2ccc(F)cc2)c2ccccc12 | -0.181
O=C(O)C1C2C=CC(O2)C1C(=O)Nc1ccccc1C(F)(F)F (centres undefined) | -0.222
O=C(CNC(=O)c1ccccc1)OCC(=O)N1c2ccccc2Sc2ccccc21 | -0.181
O=C(C1CCC1)N1CCc2cc(S(=O)(=O)N3CCc4ccccc4C3)ccc21 | 0.525
Cc1noc(C)c1S(=O)(=O)Nc1ccc(C(=O)NCCc2ccccc2)cc1 | 0.313
Cc1cccc(CN2CCc3c(OCC(=O)N4CCCc5ccccc54)cccc3C2=O)c1 | -0.172
CC(=O)c1c(C(C)=O)c(C)n(-c2ccc(N)cc2)c1C | -0.306
CCOc1cc(-c2nc(-c3ccccc3)c(-c3cc([N+](=O)[O-])ccc3C)[nH]2)ccc1O | 0.424
CCOc1ccc(N(CC(=O)NC2CCCCC2)C(=O)CNC(=O)c2ccco2)cc1 | -0.0304
CN1C(=S)N(c2ccccc2)C(=O)/C1=C/c1cccs1 | -0.123
COc1ccccc1C(=O)NCCn1cc(SCC(=O)NCc2ccco2)c2ccccc21 | -0.281
CCNc1nc(N)c(C(=C(C#N)C#N)c2ccccc2)s1 | -0.29
Cc1ccccc1NC(=O)Nc1cc(S(N)(=O)=O)ccc1C | -0.406
CCc1nnc2n1N=C(c1ccc(OC)cc1)CS2 | -0.703
N#CCCn1nc(-c2ccc(Cl)cc2)cc1Nc1ccccc1NC(=O)C(F)(F)F | 1.83
O=C(Nc1ccc2c(c1)OCO2)N1CCOCC1 | 0.476
CCCc1nnc(-c2ccc(OC)cc2)o1 | -0.542

SMILES | z-score
COc1ccc2cc(S(=O)(=O)NCCCN3CCOCC3)ccc2c1 | -0.0146
Cc1cccc(C)c1NC(=O)C1(NC(=O)C2CCC(=O)N2)CCCCC1 (centres undefined) | 0.117
O=C(NC1CCCC1)c1cc2c(ccc3ccccc32)o1 | 0.185
CC(C)c1ccc(C(=O)N2CCCN(C(=O)c3ccc(C(C)C)cc3)CC2)cc1 | -0.119
S=c1[nH]nc(-c2ccco2)n1/N=C/c1ccc(Cl)cc1 | -0.0483
S=c1[nH]nc(-c2cccnc2)n1Cc1ccccc1 | 0.101
O=C(Nc1nc(-c2cccc([N+](=O)[O-])c2)cs1)C(c1ccccc1)c1ccccc1 | -0.0572
O=C1Nc2cc(Cl)c(Cl)cc2N(O)N1c1ccccc1 | 0.157
CCCN=C1NC(=O)C(CC(=O)NCCc2ccc(OC)c(OC)c2)S1 (centres undefined) | -0.198
COc1ccc(-n2cc(C(=O)Nc3cc([N+](=O)[O-])ccc3OC)c3ccccc3c2=O)cc1 | -0.173
Cc1cccc(C)c1Nc1c(-c2ccsc2)nc2ncccn12 | -0.464
O=C(COC(=O)c1cc(-c2cccs2)nn1-c1ccccc1)Nc1cc([N+](=O)[O-])ccc1Cl | -0.0333
Cc1cc(C)cc(NC2=NC3(CCCCC3)N=C(N)N2)c1 | 0.506
COc1ccccc1C(=O)NCC(=O)N/N=C/c1cc(Br)ccc1OC(=O)/C=C\c1ccco1 | -0.122
Cn1c(C(=O)OCC(=O)NCc2ccco2)cc2sccc21 | -0.0415
CCOC(=O)NC(NCC(O)c1ccccc1)(C(F)(F)F)C(F)(F)F (centres undefined) | 0.575
COc1ccc2[nH]cc(/C=C(/C#N)S(=O)(=O)c3ccccc3)c2c1 | -0.65
COc1ccc(Cn2c(=O)[nH]c3cc(C(=O)Nc4ccc(N5CCN(C)CC5)cc4)ccc32)cc1 | 0.00534
CC(Sc1nnc(C(F)(F)F)n1C)C(=O)NC(N)=O (centres undefined) | 1.15
COc1ccc(N(CC(=O)Nc2ccccc2C(=O)NCc2ccco2)S(C)(=O)=O)cc1 | 0.24
O=C(Nc1ccc2c(c1)OCO2)c1cccc(S(=O)(=O)N2CCCC2)c1 | 0.0256
O=C1NC(=O)C(c2cn(-c3ccccc3)nc2-c2ccc(F)cc2)N1 (centres undefined) | -0.00714
Cc1cccc(C(=O)NC(=S)NNC(=O)c2ccc(Cl)cc2)c1 | active: 6.22
